Data: US10220090B2, “BCMA Antigen binding proteins” (Amgen Inc., priority 2012, dated 2019)

Tests used:
[1] = Differential Scanning Calorimetry (DSC) thermostability; format: physicochemical; details: full-length antibody
From the text: Differential Scanning calorimetry (DSC) was used to compare the thermostability of parent and engineered antibodies. DSC is a thermodynamical tool for direct assessment of the heat energy uptake, which occurs in a sample within a regulated increase or decrease in temperature. DSC is commonly employed to assess the thermal and conformational stability of a protein. The melting temperature of a protein, or of individual domains, can be obtained from the DSC profile, and if the reaction is reversible the thermodynamic parameters of the unfolding can be determined. A protein is considered more thermostable when the Tm (transition temperature) is higher. When thermostability data are compared to other bioanalytical methods, like size exclusion chromatography (SEC), it has been observed that a correlation between greater thermostability (higher Tm) and decreased aggregation. Antibodies with a higher Tm and decreased aggregation formation have the potential for improved long-term stability thus potentially making better biotherapeutics.
DSC was carried out using a MicroCal™ VP-Capillary DSC system (GE Healthcare, Piscataway, N.J.) equipped with an auto-sampler. The temperature differences between the reference and sample cells are continuously measured, and calibrated to power units. For example, the full-length antibodies shown in TABLE 10 were diluted to 0.5 mg/mL in a buffered solution. The solution reference and protein samples were measured in a 135 μL cell from 20 to 110° C. at a heating rate of 60° C./hour. The pre-scan was set at 15 minutes while the filtering period was 10 seconds. Signal from the blank buffer solution was used for baseline subtraction. The data analysis was performed using MicroCal™ Origin 7 software. Heat capacity during protein melting was calculated by normalizing over protein concentration.

[2] = system: CD138+ plasma cell fraction of multiple myeloma patient samples; experiment: pHrodo flow cytometry internalization in multiple myeloma patient samples; format: cell-based, human; details: pHrodo labeled antibody, 4 hours
Protocol: Samples were acquired from commercial sources (AllCells, Conversant, Proteogenex) to acquire approximately 1×10^6 plasma cells per sample. Individual multiple myeloma (MM) samples were thawed gently at room temp (RT). The thawed cells were added dropwise into 4 ml of 50% FBS (fetal bovine serum) RPMI buffer at RT. 3 ml of 10% FBS RPMI was added to the cell suspension. The cell suspension was gently inverted to mix and centrifuged at low speed to pellet cells. The media was aspirated and the cell pellet was resuspended in 1% FBS PBS (Phosphate Buffered Saline). The cells were manually counted on a hemocytometer. The cells were added to 10 FBS RPMI and allowed to recover in an incubator for 1 hr at 37° C. with 5% CO2. Cell viability was assessed as follows. Cells from primary MM and H929 cell lines were plated at 200,000 cells per well in a 96 well plate with fresh 10% FBS RPMI buffer with 5 wells per sample. The plate was centrifuged to pellet cells and media aspirated and resuspended in PBS three times. Cells were stained with Violet Live/Dead cell stain (Molecular Probes—L34955) per manufacturer protocol and incubated at RT in the dark for 30 minutes. […] Internalization/Immunophenotype (IP) was assessed as follows. […] Cells from each well were assessed using a LSRII (BD Bioscience) and FCS files generated. […]

[3] = pI (Whole) of antibodies; format: physicochemical; details: method not stated

B1: Ab-38: 2A1-HC: R17G, T24A, C107A; heavy chain SEQ ID NO:309, light chain SEQ ID NO:312 (antibody)
heavy: EVQLVESGGGLVKPGGSLRLSCAASGFTFGDYALSWFRQAPGKGLEWVGVSRSKAYGGTTDYAASVKGRFTISRDDSKSFAYLQMNSLKTEDTAVYYCASSGYSSGWTPFDYWGQGTLVTVSS[omitted - human IgG1 constant region]
light: QSVLTQPPSASGTPGQRVTISCSGSSSNIGSNTVNWYQQLPGTAPKLLIFNYHQRPSGVPDRFSGSKSGSSASLAISGLQSEDEADYYCAAWDDSLNGWVFGGGTKLTVLGQPKAAPSVTLFPPSSEELQANKATLVCLISDFYPGAVTVAWKADSSPVKAGVETTTPSKQSNNKYAASSYLSLTPEQWKSHRSYSCQVTHEGSTVEKTVAPTECS
[1]
  Tm: 75 °C
[2]
  internalization in multiple myeloma patient samples: effectively internalized in all 29 multiple myeloma patient samples
[3]
  pI (Whole): 8.39
